Results on one molecule are retold here after patent publication US20240101675A1 (BIOLOJIC DESIGN, published 2024).

Assay [1] concerns the target T1, IL-13R/IL-4R receptor complex on HEK-Blue IL-4/IL-13 cells (UniProt P78552 22-427; P24394 26-825, limits assumed). The assay can be described thus: cell-based or functional assay.
For assay [2], the target named is T1, IL-13R/IL-4R receptor complex on …. Briefly: cell-based or functional assay. This is another data set of the same source.
A further assay deals with T2, BDG33.023.
T2 construct: IgG (human IgG1 format, symmetrical IgG); also called BGD33.023; BGD33.0023
Briefly: competition ELISA: 20 nM IgG pre-incubated with soluble hIL-13 (0.78-200 nM), then on a plate coated with hIL-13; bound IgG by anti-human Fc-HRP. On the technique in general: In an ELISA, binding on a coated surface is turned into a signal by an enzyme label.

Assay [3] addresses anti-IL-13 control antibody. Described as above.

T2 sequence (VH, as listed by the source, chain 1 of 2): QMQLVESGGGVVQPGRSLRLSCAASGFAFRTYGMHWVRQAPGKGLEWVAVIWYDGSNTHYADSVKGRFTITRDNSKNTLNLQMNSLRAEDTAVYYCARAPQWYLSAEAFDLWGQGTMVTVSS
T2 sequence (VL, as listed by the source, chain 2 of 2): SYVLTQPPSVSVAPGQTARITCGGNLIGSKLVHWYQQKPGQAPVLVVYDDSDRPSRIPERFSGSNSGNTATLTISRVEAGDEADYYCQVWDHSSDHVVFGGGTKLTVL

B1: recombinant human IL-13 (ligand)
chain: not shown
notes: also called rh-IL-13; rhIL-13
B1: the “EC50 (read off the curve); HEK-Blue IL-4/IL-13 STAT6-SEAP reporter, OD 655 nM” value in assay [1] was about 0.1 nM. In addition, the “EC50, HEK-Blue IL-4/IL-13 STAT6-SEAP reporter cells” value in assay [2] is about 0.12 nM. For the same molecule, the “IC50 (read off the curve)” value is about 20 nM with BDG33.023 and about 10 nM in assay [3].
